# This list was built around the results that the source calls inconclusive (neither active nor inactive); the mix of calls is not that of the screen. The call rests on the fitted dose curve; in most records, active means well fitted inhibition curve with a large enough effect; inconclusive means small, poorly fitted or top-dose-only effect, or another doubt; inactive means no such curve, though single readings can be large or run the other way. No potency is given beside an inconclusive call; the fits are too rough.
# Biological target: DNA polymerase eta (Homo sapiens) (UniProt Q9Y253)
# Chain of UniProt Q9Y253 (Q9Y253 whole entry, looked up): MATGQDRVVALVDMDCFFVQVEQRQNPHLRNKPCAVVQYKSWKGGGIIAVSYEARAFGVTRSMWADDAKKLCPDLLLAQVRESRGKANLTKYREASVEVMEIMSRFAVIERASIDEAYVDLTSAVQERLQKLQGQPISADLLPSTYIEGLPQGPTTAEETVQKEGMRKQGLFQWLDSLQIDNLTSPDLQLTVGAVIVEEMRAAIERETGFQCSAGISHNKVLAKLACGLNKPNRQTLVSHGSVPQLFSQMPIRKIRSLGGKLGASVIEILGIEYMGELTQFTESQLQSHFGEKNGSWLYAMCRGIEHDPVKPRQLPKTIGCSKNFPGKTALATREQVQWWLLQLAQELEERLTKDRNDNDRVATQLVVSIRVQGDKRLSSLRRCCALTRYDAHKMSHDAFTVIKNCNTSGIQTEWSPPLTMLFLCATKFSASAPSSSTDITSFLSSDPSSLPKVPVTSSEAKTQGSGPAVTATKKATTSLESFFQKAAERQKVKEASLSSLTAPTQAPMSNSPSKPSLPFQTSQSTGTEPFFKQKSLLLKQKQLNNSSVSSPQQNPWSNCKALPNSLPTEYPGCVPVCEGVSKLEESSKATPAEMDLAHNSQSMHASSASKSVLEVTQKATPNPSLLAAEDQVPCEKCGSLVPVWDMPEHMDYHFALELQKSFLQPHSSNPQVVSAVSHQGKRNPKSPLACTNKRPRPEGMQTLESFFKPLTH
# Assay: qHTS for Inhibitors of Polymerase Eta: Confirmatory Assay for Cherry-picked Compounds (AID 720502)
# Settings: Pol eta primer extension, TAMRA/BHQ fluorescence, 10 min
# How it was run: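 Human Pol eta (10 nM) was preincubated with compounds for 15 min at room temperature before adding 50 nM (final) DNA substrate: primer plus TAMRA reporter strand annealed to a BHQ-2-labeled template. Fluorescence (ex 525/em 598 nm) was read at 0 and 10 min.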
# Potency means the concentration at half of the fitted maximal effect; tags describe the fitted curve by direction and shape.
row,SMILES,Potency
1,Cc1cc(C)cc(-n2cccc2/C=C2/C(=N)N3C(=NC2=O)SN=C3S(C)(=O)=O)c1,"inconclusive [inhibitor, single point]"
2,CCCCCCc1c(C)c2ccc(OCC(=O)N[C@@H](Cc3ccccc3)C(=O)O)cc2oc1=O,"inconclusive [inhibitor, single point]"
3,Cc1ccccc1N/N=C/c1sc(=O)n(Cc2cccc(C(=O)O)c2)c1Cl,"inconclusive [inhibitor, single point]"

# Source: PubChem BioAssay (NCATS)
